# Assay results as given in PubChem BioAssay (Tox21).
# Several values for one entry are separate records, joined by “and”; a condition that tells them apart may be missing. Identical values can stand only once. The shares of active, inactive and inconclusive entries below differ from those in the screen. For some of these results: Where the call is inconclusive, the potency comes from a doubtful curve fit. A structure can be active in one record and inactive in another. Activity calls are given as the source filed them. Unless noted, the call rests on the fitted dose curve; in most records, active means well fitted curve in the direction sought with a large enough effect in the repeat runs; inconclusive means weak or mixed curves; inactive means no such curve, though single readings can be large; an effect the other way counts as inactive or inconclusive.
# Tests used:
# [1] = qHTS assay to identify small molecule agonists of H2AX (AID 1224845; active means well fitted activation curve with a large enough effect in the signal ratio in the repeat runs, not every such curve was filed as active; inconclusive means weak or mixed curves; the % refers to the signal ratio; further: potency means the concentration at half of the fitted maximal effect; on activation (H2AX phosphorylation): on the % scale 0 is the no-effect control and ±100 the full control effect); settings: CHO-K1 phospho-H2AX Ser139 HTRF, 3 h; activation (H2AX phosphorylation): at 154 µM (top of the series) unless noted
# Outline: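 Phospho-H2AX Ser139 measured by HTRF (ex 320 nm; em 665 and 620 nm) after 24 hr antibody incubation. Compounds, 15 concentrations, 0.76% DMSO, were applied to CHO-K1 cells for 3hr at 37C before lysis.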
# [2] = qHTS assay to identify small molecule agonists of the hypoxia (HIF-1) signaling pathway (AID 1224846; active means well fitted activation curve with a large enough effect in the signal ratio in the repeat runs, not every such curve was filed as active; inconclusive means weak or mixed curves; the % refers to the signal ratio; further: potency means the concentration at half of the fitted maximal effect); settings: HRE-bla ME-180 cells, beta-lactamase ratio, 17 h; activation: at 76.8 µM (top of the series) unless noted
# Outline: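 Compounds added to ME-180 cells carrying hypoxia-response-element beta-lactamase reporter (0.5% dialyzed FBS, 5 h preplating), 17 h at 37C; agonist activity detected by CCF4-AM B/G FRET read-out.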
# [3] = qHTS assay to identify small molecule agonists of H2AX - cell viability counter screen (AID 1224847; calls by dose curve; further: potency means the concentration at half of the fitted maximal effect; nearly all actives have a fitted effect of over 30% in size)
# Outline: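 Quantitative HTS viability measurement: CHO-K1 wild-type cells in serum (10% FBS) medium, short 3 hr drug exposure at 37C with 0.76% DMSO, CellTiter-Glo luminescent detection.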
# [4] = qHTS RealTime-Glo MT Cell Viability Assay in HepG2 cells - 24 hour (AID 1224867); further: potency means the concentration at half of the fitted maximal effect; nearly all actives have a fitted effect of over 50% in size
# Outline: (§1)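 Viability was tracked continuously by NanoLuc luminescence from prosubstrate reduced by living HepG2 cells, at successive time points over 40 h of compound exposure. Cells with reagent were preincubated 5 h at 37 °C before compound addition.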
# [5] = A CellTox Green Cytotoxicity Assay to monitor cytotoxicity in HEK293 cells - 0 hour (AID 1224869); settings: CellTox Green fluorescence; further: potency means the concentration at half of the fitted maximal effect; nearly all actives have a fitted effect of over 50% in size
# Outline: (§2)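 Fluorescence from a DNA-binding dye excluded by viable cells was measured repeatedly in the same HEK293 wells (600 cells/well) during continuous compound exposure at 37 C. Each assay gives one read point: 0, 8, 16, 24, 32 or 40 h.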
# [6] = qHTS RealTime-Glo MT Cell Viability Assay in HEK293 cells - 16 hour (AID 1224872); further: potency means the concentration at half of the fitted maximal effect; nearly all actives have a fitted effect of over 50% in size
# Outline: (§3)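 Viability tracked continuously by luminescence as live cells reduce a prosubstrate for NanoLuc; HEK293 cells preincubated 5 h, compound-treated at 37 C, and read at 0, 8, 16, 24, 32 and 40 h.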
# [7] = qHTS RealTime-Glo MT Cell Viability Assay in HepG2 cells - 8 hour (AID 1224873); further: potency means the concentration at half of the fitted maximal effect; nearly all actives have a fitted effect of over 55% in size
# Outline: (§4)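 Real-time viability: cells seeded at 600 per well together with NanoLuc and cell-permeant prosubstrate, compounds added after 5 h incubation. Luminescence tracked at 0, 8, 16, 24, 32 and 40 h of exposure.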
# [8] = A CellTox Green Cytotoxicity Assay to monitor cytotoxicity in HEK293 cells - 24 hour (AID 1224875); further: potency means the concentration at half of the fitted maximal effect; nearly all actives have a fitted effect of over 45% in size
# Outline: as §2
# [9] = qHTS RealTime-Glo MT Cell Viability Assay in HepG2 cells - 32 hour (AID 1224877); further: potency means the concentration at half of the fitted maximal effect; nearly all actives have a fitted effect of over 55% in size
# Outline: as §1
# [10] = A CellTox Green Cytotoxicity Assay to monitor cytotoxicity in HepG2 cells - 24 hour (AID 1224878); further: potency means the concentration at half of the fitted maximal effect; nearly all actives have a fitted effect of over 45% in size
# Outline: (§5)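 Real-time cytotoxicity: fluorescence of a cell-impermeant cyanine dye binding DNA of dead HepG2 cells, measured repeatedly (0–40 h) during compound exposure at 37 C. Cells seeded 600/well with reagent, dosed after 5 h.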
# [11] = A CellTox Green Cytotoxicity Assay to monitor cytotoxicity in HepG2 cells - 40 hour (AID 1224879); further: potency means the concentration at half of the fitted maximal effect; nearly all actives have a fitted effect of over 40% in size
# Outline: as §5
# [12] = qHTS RealTime-Glo MT Cell Viability Assay in HEK293 cells - 32 hour (AID 1224868); further: potency means the concentration at half of the fitted maximal effect; nearly all actives have a fitted effect of over 50% in size
# Outline: as §3
# [13] = qHTS RealTime-Glo MT Cell Viability Assay in HEK293 cells - 40 hour (AID 1224874); settings: RealTime-Glo luminescence; max response: stronger effect = lower value
# Outline: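 Luminescence, which tracks viable cell number through reduction of the prosubstrate to a NanoLuc substrate, was read over continuous 37 C culture. Cells (600/well) were premixed with reagent and rested 5 h before 23 nL of compound in DMSO was pinned.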
# [14] = qHTS assay to identify small molecule antagonists of the estrogen related receptor (ERR) signaling pathway from Tox21 library (AID 1224848)
# Outline: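 ERR cell line, 2,000 cells/well. 6 h settle, then compound (DMSO) added; 18 h at 37 C; ONE-Glo luminescence after 30 min RT.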
# [15] = qHTS RealTime-Glo MT Cell Viability Assay in HepG2 cells - 40 hour (AID 1224870)
# Outline: as §4
# [16] = A CellTox Green Cytotoxicity Assay to monitor cytotoxicity in HEK293 cells - 40 hour (AID 1224871); further: potency means the concentration at half of the fitted maximal effect; nearly all actives have a fitted effect of over 45% in size
# Outline: as §2
# [17] = A CellTox Green Cytotoxicity Assay to monitor cytotoxicity in HEK293 cells - 32 hour (AID 1224881); further: potency means the concentration at half of the fitted maximal effect; nearly all actives have a fitted effect of over 40% in size
# Outline: as §2
# [18] = A CellTox Green Cytotoxicity Assay to monitor cytotoxicity in HepG2 cells - 16 hour (AID 1224876); further: potency means the concentration at half of the fitted maximal effect; nearly all actives have a fitted effect of over 45% in size
# Outline: as §5
# [19] = qHTS assay to identify small molecule agonists of the estrogen related receptor (ERR) signaling pathway from Tox21 library (AID 1224849; calls by dose curve; further: on the % scale 0 is the no-effect control and ±100 the full control effect; nearly all actives have a fitted effect of over 15% in size); settings: ERR reporter cell line, ONE-Glo luciferase, 18 h; at 92.4 µM (top of the series)
# Outline: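 Luminescent agonist read-out (One-Glo, 30-minute room-temperature incubation) following 18-hour compound treatment at 37 C of the ERR cell line, which had been plated 6 hours before dosing.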
# Tags describe the fitted curve by direction and shape or compound fluorescence and quenching.
compound,measurement,setting,value
[O-][n+]1ccccc1SSc1cccc[n+]1[O-],Potency,[1],"inconclusive: 1.52 µM [falling, full curve]"
same,Potency,[2],"inconclusive: 0.104 µM [falling, full curve]"
same,Potency,[3],"inconclusive: 21.4 µM [cytotoxic, partial curve, poor fit]"
same,Potency,[4],active: 0.208 µM
same,Potency,[5],"inconclusive: 11.7 µM [activator, single point]"
same,Potency,[6],active: 1.31 µM
same,Potency,[7],"inconclusive: 0.329 µM [falling, full curve]"
same,Potency,[8],active: 4.65 µM
same,Potency,[9],active: 0.165 µM
same,Potency,[10],active: 1.47 µM
same,Potency,[11],active: 0.329 µM
C=C1C(CCl)(CCl)C2(Cl)C(Cl)C(Cl)C1(Cl)C2(Cl)Cl (configuration not stated),Potency,[1],active: 99.6 µM
same,Potency,[2],"inconclusive: 30.5 µM [falling, partial curve]"
same,Potency,[3],active: 99.6 µM
same,Potency,[4],"inconclusive: 54.3 µM [falling, partial curve, poor fit]"
same,Potency,[12],"inconclusive: 48.4 µM [cytotoxic, single point]"
same,Potency,[13],"inconclusive: 54.3 µM [cytotoxic, single point]"
same,Potency,[8],active: 54.3 µM
same,Potency,[10],"inconclusive: 54.3 µM [activator, single point]"
same,Potency,[11],"inconclusive: 54.3 µM [activator, single point]"
O=C(O)CS,Potency,[1],"inconclusive: 128 µM [activator, single point]"
CC(Cc1ccc(O)c(O)c1)C(C)Cc1ccc(O)c(O)c1 (configuration not stated),Potency,[1],inconclusive: 40.1 µM [full curve]
same,Potency,[2],inconclusive: 54.9 µM [single point]
same,Potency,[3],"inconclusive: 127 µM [cytotoxic, single point]"
same,Potency,[14],"inconclusive: 61.1 µM [inhibitor, single point]"
same,Potency,[4],active: 43.6 µM
same,Potency,[15],"inconclusive: 49 µM [falling, partial curve]"
same,Potency,[6],active: 49 µM
same,Potency,[9],active: 49 µM
same,Potency,[10],active: 49 µM
same,Potency,[11],active: 43.6 µM
Nc1ccc(N)c2ccccc12,Potency,[1],"inconclusive: 8.97 µM [falling, full curve]"
same,Potency,[2],"inconclusive: 24.5 µM [falling, full curve]"
same,Potency,[3],active: 101 µM
same,Potency,[4],"inconclusive: 54.9 µM [falling, single point]"
same,Potency,[12],"inconclusive: 54.9 µM [cytotoxic, single point]"
same,Potency,[16],"inconclusive: 24.5 µM [activator, partial curve]"
same,Potency,[7],"inconclusive: 54.9 µM [falling, single point]"
same,Potency,[13],"inconclusive: 54.9 µM [cytotoxic, single point]"
same,Potency,[9],"inconclusive: 54.9 µM [cytotoxic, single point]"
same,Potency,[10],active: 54.9 µM
same,Potency,[17],"inconclusive: 24.5 µM [activator, partial curve, poor fit]"
Cc1ccc(-c2cc(C(F)(F)F)nn2-c2ccc(S(N)(=O)=O)cc2)cc1,Potency,[1],inconclusive: 113 µM [activator]
same,activation (H2AX phosphorylation),[1],inconclusive: 8.39%
same,Potency,[3],"inconclusive: 61.9 µM [cytotoxic, single point]"
same,Potency,[14],inconclusive: 29.8 µM [inhibitor]
same,Potency,[12],"inconclusive: 26.8 µM [cytotoxic, single point]"
same,Potency,[6],active: 38.7 µM and active: 27.5 µM
same,Potency,[13],"active: 21.8 µM and active: 30.9 µM and inconclusive: 26.8 µM [cytotoxic, single point]"
same,Potency,[8],"inconclusive: 54.7 µM [activator, single point] and inconclusive: 54.9 µM [activator, single point]"
same,Potency,[18],"inconclusive: 26.8 µM [activator, single point]"
same,Potency,[9],inconclusive: 54.7 µM [cytotoxic] and active: 49 µM
same,Potency,[10],"inconclusive: 26.8 µM [activator, single point]"
same,Potency,[11],"active: 48.8 µM and active: 49 µM and inconclusive: 26.8 µM [activator, single point]"
same,Potency,[17],"inconclusive: 54.7 µM [activator, single point] and active: 49 µM"
C=C1C(C)(C)[C@@]2(Cl)C(Cl)[C@]1(Cl)C(Cl)(Cl)C2(Cl)Cl (some centres not stated),Potency,[1],"inconclusive: 124 µM [activator, single point]"
same,Potency,[2],"inconclusive: 60.5 µM [falling, single point]"
same,Potency,[3],active: 111 µM
same,"activity change, positive = activation",[19],inactive: -68%
same,Potency,[4],"inconclusive: 53.9 µM [falling, single point]"
same,Potency,[12],"inconclusive: 60.5 µM [cytotoxic, single point]"
same,Potency,[16],"inconclusive: 53.9 µM [activator, single point]"
same,Potency,[6],"inconclusive: 53.9 µM [cytotoxic, single point]"
same,Potency,[13],"inconclusive: 60.5 µM [cytotoxic, single point]"
same,Potency,[8],"inconclusive: 53.9 µM [activator, single point]"
same,Potency,[9],"inconclusive: 53.9 µM [cytotoxic, single point]"
same,Potency,[17],"inconclusive: 53.9 µM [activator, single point]"
